B1: OR4K15 (parent)
chain: GUUAACGGUCAUAGGCCAUGGAAACUAGGAGCACCAUUUCGCUGCCAGUGAAGAAAUGAACAAAGAAAAUCUGGGCCAGGCAGGCAUCAAAAGAAAUAGUCUUGCGCUCAACCAGAAAGUCUGUAAUCAUUUUAAGGGUA

Read counts are not given, so values of variants with three or more changes are uncertain.

The variants in this data set derive from B1. As to the kind of experiment: self-cleavage, relative activity (ratio to wild type); higher = more cleavage; in vitro, sequencing; the parent is a self-cleaving ribozyme.
On to GUUAACGGUCAUAGGCCACGGAAACUAGGAGCGCCAUUUCGCUGCCAGUGAAGAAAUGAACAAAGAAAAUCUGGGCCGGGCAGGCAUCAAAGGAAAUAGUCCUGCGCUCAACCAGAAAGUCUGUAAUCAUUUUAAGGGUA [U19C A33G A78G A92G U102C], for which the self-cleavage amounted to 0.35.
For GUUAACGGUCAUAGGCCACGGAAACUUGGGGCACCAUUUCGCUGCCAGUGAAGAAAUGAACAAAGAAAAUCUGGGCCAGGCAGGCAUCAAAAGAAAUAGUCUUGCGCUCAACCAGAAAGUCUGUAAUCAUUUUAAGGGUA [U19C A27U A30G], the self-cleavage came out at 0.45.
The value for GUUAACGGUCAUAGGCCACGGAACCUAGGAGCACCAUUUCGCUGCCAGUGAAGAAAUGAACAAAGAAAAUCUGGGCCAGGCAGGCAUCAAAAGAAAUAGUCUUGCGCUCAACCAGAAAGUCUAUAAUCAUUUUAAGGGUA [U19C A24C G123A] was 1.11.
In the case of GUUAACGGUCAUAGGCCACGGAAUCUAGGAGCACCAUUUCGCUGCCAGUGAAGAAAUGAACAAAGUAAAUCUGGGCCAGGCAGGCAUCAAAAGAGAUAGUCUUGCGCUCAACCAGAAUGUCUGUAAUCAUUUUAAGGGUA [U19C A24U A66U A95G A118U] it was 0.85.
In the case of GUUAACGGUCAUAGGCCACGGAAACUAGGAGCGCCGCUUCGCUGCCAGUGAAGAAAUGAACAAAGAAAAUCAGGGCCAGGCAGGCAUCAAAAUAAAUAGUCUUGCGCUCAACCAGAAAGUCUGUAAUCAUUUUAAGGGUA [U19C A33G A36G U37C U72A G93U] it was 0.21; in that of GUUAACGGUCAUAGGCCACGGAAACUAGGAGCACCCUUCCGCUGCCGGUGAAGAAAUGAACAAAGAAAAUCUGGGCCAGGCAGGCAUCAAAAGAAAUAGUCUUGCGCUCAACCAGAAAGUCUGUAAUCAUUUUAAGGGUA [U19C A36C U39C A47G], 0.75.
As for GUUAACGGUCAUAGGCCACGGAACCUAGGAGCACCAUUCCGCUGCCAGUGAGGAAAUGAACAAAGAAAAUCUGGGCCAGGCAGGCAUCAAAAGAAAUAGUCUUGCGCUCAACCAGAAAGUCUGUAAUCAUUUUAAGGGUA [U19C A24C U39C A52G], the self-cleavage is 1.16.
In the case of GUUAACGGUCAUAGGCCACGGAACCUAGGAGCACCAUUUCGUUGCCAGUGAAGAAAUGAACAAAGAAAAUCUGGGCCAGGCAGGCAUCGGAAGAAAUAGUCUUGCGCUCAACCAGAAAGUCUGUAAUCAUUUUAAGGGUA [U19C A24C C42U A89G A90G] it was 0.89.
Regarding GUUAACGGUCAUAGGCCACGGAAACUAGGUGCACCAUUUCGCUGCCAGUGAAGAAAUGAACAAAGAAAACCUGGGCCAGGCAGGCAUCAAAAGGAAUAGUCUCGCGCUCAACCAGAAAGUCUGUAAUCAUUUUAAGGGUA [U19C A30U U70C A94G U103C], the self-cleavage came to 0.71.
The value for GUUAACGGUCAUAGGCCACGGAAACUAGGAGCUCCAUUUCGCUGCCAGUGAAGAAAUGAACAAAGAAAAUCUGGGCCAGGCAGGCAUCAAAAGAAGUAGUCUUGCGCUCAACCAGAAAGUCUGUAAUCAUUUUAAGGGUA [U19C A33U A96G] was 1.42; that for GUUAACGGUCAUAGGCCACGGAAACUAGGGGCACCAUUUCGCUGCCAGUGAAGAAAUGAACAAAGAAAAUCUGAGCCAGGCAGGCAUCAAAAGAGAUAGUCUUGCGCUCAACCAGAAAGUCUGUAAUCAUUUUAAGGGUA [U19C A30G G74A A95G] was 0.26.
In the case of GUUAACGGUCAUAGGCCACGGAAACUAGGAGCGCCAUUUCGCUGCCAGUGAAGAAAUGAACAAAGAAAGUCUGGGCCAGGCAGGCAUCAAAAGAAAUAGUCUUGCGCUCAACCAGAAAGUCUGUAAUCAUUUUAAGGGUA [U19C A33G A69G] it was 0.47; in that of GUUAACGGUCAUAGGCCACGGAAACUAGGGGCACCAUUUCACUGCCAGUGAAGAAAUGAACAAAGAAAAUCUGGGCCAGGCAGGCAUCAAAAGAAAUAGUCUUGCGCUCAACCAGAAAGUCUGUAAUCAUUUUAAGGGUA [U19C A30G G41A], 1.22.
As to GUUAACGGUCAUAGGCCACGGAAGCUAGGAGCACCAUUUCGCUGCCAGUGAUGAAAUGAACAAAGAAAAUCUGGGCCAGGCAGGCAUCAAAAGAAAUAGUCUUGCGCUCAACCAGAAAGUCUGUAAUCAUUUUAAGGGUG [U19C A24G A52U A140G], the self-cleavage came to 0.73.
In the case of GUUAACGGUCAUAGGCCACGGAAACUAGGAGCGCCAUUUCGCUGCCAGUGAAGAAAUGAACAGAGAAAAUCUGGGCCAGGCAGGCAUCAAGAGAAAUAGUCUUGCGCUCAACCAGAAAGUCUGUAAUCAUUUUAAGGGUA [U19C A33G A63G A91G] it was 0.27.
The value for GUUAACGGUCAUAGGCCACGGAAACUAGGAGCUCCAUUACGCUGCCAGUGAAGAAAUGAACAAAGAAAAUCUGGGCCAGGCAGGCAUCAAAAGAAAUAGUCUUGCGCUCAACCAGAAAGUCUGUAAUCAUUUUAAGGGUA [U19C A33U U39A] was 1.48.
In the case of GUUAACGGUCAUAGGCCACGGAAGCUAGGAGCACCAUUUCGCUGACAGUGAAGAAAUGAACAAAGAAAAUCUGGGCCAGGCAGGCAUCAAAGGAAGUAGUCUUGCGCUCAACCAGAAAGUCUGUAAUCAUUUUAGGGGUA [U19C A24G C45A A92G A96G A135G] it was 0.69; in that of GUUAACGGUCAUAGGCCACGGAGACUAGGAGCACCAUUUCGCCGCCAGUGAAGAAAUCAACAAAGAAAAUCUGGGCCAGGCAGGCAUCAAGAGAAAUAGUCUUGCGCUCAACCAGAAAGUCUGUAAUCAUUUUAAGGGUA [U19C A23G U43C G58C A91G], 0.77.
Turning to GUUAACGGUCAUAGGCCACGGAAGCUAGGAGCACCAUUUCGCUGCCAGUGAAGAAAUGAACAAAGAAAAUCUGGGCCAGGCAGGCAUCAAAAGAAAUAGUCUUGCGCUCAACCAGAAAGUCUGUAAUCAUUUUGAGGGUA [U19C A24G A134G], the self-cleavage stood at 1.1.
The value for GUUAACGGUCAUAGGCCACGGAAACUAGGAGCGCCAUUUCGCUGCCAGUGAAGAAAUGAACAGAGAAAAUCUGGGCCAGGCAGGCAUCAAAAGAAAUAGUCUUGCGCUCAACCAGAGAGUCUGUAAUCAUUUUAAGGGUA [U19C A33G A63G A117G] was 1.04.
On to GUUAACGGUCAUAGGCCACGGAAGCUAGGAGCACCAUUUCGCUGCCAGUGAAGAAAUGAACAAAGGAAAUCUGGGCCAGGCAGGCAUCAAAAGAAAUAGUCUUGCGCCCAACCAGAAAGUCAGUAAUCAUUUUAAGGGUA [U19C A24G A66G U108C U122A], for which the self-cleavage stood at 0.02.

The record behind these values is the RNAGym collection of RNA variant scans (doi:10.7554/elife.90254).
